# About 64,000 (15%) of roughly 420,000 compounds were called active. Inconclusive means that the source gave no clear call. Such entries were picked first, then a sample of the others. The call rests on the fitted dose curve; in most records, active means well fitted inhibition curve with a large enough effect; inconclusive means small, poorly fitted or top-dose-only effect; inactive means flat fitted curve, though single readings scatter. No potency is given beside an inconclusive call; the fits are too rough.
# Test: qHTS for Inhibitors of human tyrosyl-DNA phosphodiesterase 1 (TDP1): qHTS in cells in absence of CPT; further: nearly all actives have a fitted effect of over 55% in size
# Settings: DT40 Tdp1-/- hTDP1 cells, no CPT, ATP luminescence, 48 h; series mostly up to 46.2 µM
# In short: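 Chicken DT40 Tdp1-/- cells stably complemented with human TDP1 were seeded at 400 cells/well with DMSO in place of 20 nM camptothecin. After compound pinning, cells grew at least 48 hr at 37 °C; viability read by CellTiter-Glo luminescence.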
# Potency means the concentration at half of the fitted maximal effect; tags describe the fitted curve by direction and shape.
row,Structure (SMILES),Potency
1,CN(C)CCCn1c2c(c(SCC(=O)Nc3ccc4c(c3)OCCO4)nc1=O)CCCC2,"inconclusive [inhibitor, single point]"
2,Cn1nc([N+](=O)[O-])nc1Oc1ccc(C(C)(C)C)cc1,"inconclusive [inhibitor, partial curve]"
3,CCN(CC)CCCN(C(=O)c1cccc(C)c1)c1nc(-c2ccc(OC)cc2)cs1,active: 7.31 µM
4,CN(C)c1ccc(/C=N/N(CCC(=O)NC(C)(C)C)C2=NS(=O)(=O)c3ccccc32)cc1,"inconclusive [inhibitor, partial curve]"
5,CCc1ccc(S(=O)(=O)c2nnn3c2nc(NC2CCCCCC2)c2sccc23)cc1,active: 16.4 µM
6,Cc1ccc(N2C(=S)N=C(Nc3ccccc3C)C23CCOC(C)(C)C3)cc1 (stereo unspecified),"inconclusive [inhibitor, single point]"
7,COc1cc(CNc2nnnn2C)ccc1OCc1ccc(F)cc1Cl,"inconclusive [inhibitor, single point]"
8,S=c1[nH]nc(COc2ccccc2)n1/N=C/c1ccc(Br)s1,inactive
9,CCN(C(=O)c1c(-c2ccccc2)noc1C)c1ccccc1,"inconclusive [inhibitor, single point]"
10,CCOCCCNC(=O)C1CCC(CNS(=O)(=O)c2ccc(NC(C)=O)cc2)CC1 (stereo unspecified),inactive
11,CC(C)[C@H](NC(=O)c1c(F)cccc1F)C(=O)OCC(=O)NNC(=O)c1ccccc1,inactive
12,Cc1cc(Cl)c(OCCn2ccnc2)c(Br)c1,"inconclusive [inhibitor, single point]"
13,COc1ccc(-c2c3c(=O)n(C)c(=O)n(C)c3cn2-c2ccccc2O)cc1,inactive
14,CCCCCC(=O)Nc1cc(S(=O)(=O)N2CCOCC2)ccc1Oc1ccc(OCC)cc1,"inconclusive [inhibitor, single point]"
15,NC(=O)C(CCc1nc2ccccc2[nH]1)NS(=O)(=O)c1ccccc1 (stereo unspecified),"inconclusive [inhibitor, single point]"
16,Cc1ccc(NS(=O)(=O)c2ccc(C)c(NC(=O)COc3ccc4ccccc4c3)c2)c(C)c1,active: 16.4 µM
17,C=C(C)COc1ccc(-c2n[nH]c(C)c2-c2ccc(Br)cc2)c(O)c1,"inconclusive [inhibitor, single point]"
18,N#Cc1c(N)oc(-c2ccco2)c1-c1ccco1,active: 16.4 µM
19,COc1ccc(/C=N/OCC(=O)N=Nc2c(O)[nH]c3ccc(Br)cc23)cc1,"inconclusive [inhibitor, single point]"
20,CC1NC(=O)c2cc3ccccc3cc2-n2c1nc1cc(F)ccc1c2=O (stereo unspecified),"inconclusive [inhibitor, single point]"
21,CCOC(=O)C1(Cc2ccccc2C)CCCN(C(=O)CSC)C1 (stereo unspecified),"inconclusive [inhibitor, single point]"
22,CCCn1c(C)cc(C(=O)COC(=O)c2cc(S(=O)(=O)NCC(C)C)c(Cl)cc2Cl)c1C,active: 14.6 µM
23,COc1ccc(N2CCN(Cc3ccc(Br)s3)CC2)cc1,"inconclusive [inhibitor, partial curve]"

row,Structure (SMILES),Potency
1,C=CCOC(=O)C(C#N)c1nc2ccccc2nc1N1CCN(c2ccccc2OC)CC1 (stereo unspecified),"inconclusive [inhibitor, single point]"
2,Cc1cc2occ(CC(=O)NNC(=O)c3ccccc3)c2cc1C,inactive
3,Cc1ccc(NC(=S)Nc2ccc3cn[nH]c3c2)cc1,inactive
4,CCn1cc(C(=O)N2CCN(c3cccc(Cl)c3)CC2)c(=O)c2cc(S(=O)(=O)N3CCCCC3)ccc21,inactive
5,CCc1ccc(OCCOCC(O)CNC2CCCC2)cc1 (stereo unspecified),"inconclusive [inhibitor, single point]"
6,COc1ccc(Nc2nnc(SCC(=O)N3CCCC3)s2)cc1,"inconclusive [inhibitor, single point]"
7,N#CC1=C(SCC(N)=O)NC2=C(C(=O)c3ccccc32)C1c1ccc(Cl)cc1 (stereo unspecified),active: 16.4 µM
8,CCOc1ccc(-n2c(SCC(N)=O)nc3c([nH]c4ccccc43)c2=O)cc1,"inconclusive [inhibitor, single point]"
9,C/C(=N\NC(=O)C1CCCC1)c1ccc(Cl)c(Cl)c1,inactive
10,COc1cc(OC)cc(C(=O)Nc2ccc3nc(N4CCCCC4)cc(C)c3c2)c1,active: 16.4 µM
11,COc1ccc(-c2nnc(SCC(=O)N3CCCC(C)C3)o2)c(OC)c1 (stereo unspecified),"inconclusive [inhibitor, single point]"
12,Cc1ccc(C)c(N2CCN(C3CCCCC3NS(=O)(=O)c3ccccc3)CC2)c1 (stereo unspecified),active: 4.61 µM
13,O=C(Nc1cccc(S(=O)(=O)N2CCCCC2)c1)c1ccc(N2CCCC2=O)cc1,inactive
14,O=C(CCCOc1ccc(Cl)cc1)NCCc1ccccc1,inactive
15,CN(CC(=O)NCCCc1ccccc1)Cc1ccc(Br)cc1,"inconclusive [inhibitor, single point]"
16,O=C1NN=C2CCCCCC12 (stereo unspecified),"inconclusive [inhibitor, partial curve, poor fit]"
17,CC(C)CC(C(=O)NC1CCCCC1)N(Cc1ccccc1)C(=O)c1snc(C(N)=O)c1N (stereo unspecified),"inconclusive [inhibitor, single point]"
18,CCOC(=O)c1c(CN(CC)CC)n(-c2ccccc2)c2ccc(O)cc12,"inconclusive [inhibitor, partial curve, poor fit]"
19,CNc1ccc2ncc(-c3ccccc3C(C)=O)n2n1,"inconclusive [inhibitor, single point]"
20,CCCn1c(-c2ccc(S(=O)(=O)N3CCOCC3)cc2)csc1=Nc1ccc(OCC)cc1,active: 2.91 µM
21,CCCCN1c2cc(C)c(O)cc2C(C(=O)OCC)C1C (stereo unspecified),inactive
22,CCCc1ccc(C(O)c2ncc(-c3ccccc3C)[nH]2)cc1 (stereo unspecified),"inconclusive [inhibitor, single point]"
23,FC(F)(F)c1nc(NCc2cccnc2)c2ccccc2n1,active: 23.1 µM

# Source: PubChem BioAssay AID686978 (National Center for Advancing Translational Sciences (NCATS), 2013)
